# Test results as given in ChEMBL document CHEMBL4888484, “Replenishing the malaria drug discovery pipeline: Screening and hit evaluation of the MMV Hit Generation Library 1 (HGL1) against asexual blood stage Plasmodium falciparum ,using a nano luciferase reporter read-out” (2022).
# In all, about 150,000 compounds went through this assay and about 540 (0.36%) showed an effect of 50% or more. The list shows a part of the results.
# Tested on: Plasmodium falciparum
# Test: Primary screen in NF54 nanoGlo assay, in single point, at 2uM, 72h; a lower Z score goes with more inhibition
# Type: functional, Erythrocyte
# Settings: timepoint 72 hour
SMILES,% Inhibition [%],Z score
O=C1c2ccccc2[C@@H](Nc2ccc3c(c2)OCCO3)N1c1ccccn1,35,-4.66
COc1ccc(-c2ncncc2-c2csc(C)n2)c(O)c1OC,-10,1.33
CCc1cc(=O)n2c3ccccc3n(Cc3ccccc3Cl)c2n1,32,-3.65
C[C@@H](c1nccc(N)n1)N(C)CCCc1ccccc1,3,-0.3
C[C@H](NC(=O)OC(C)(C)C)c1nc(C2CCOCC2)cs1,-13,1.33
Cc1nc([C@H](C)NC(=O)c2ccncc2F)n[nH]1,-2,0.42
Cc1ccc(C2CCN(S(=O)(=O)c3cnc(C4CC4)s3)C2C(=O)O)cc1 (centres undefined),-3,0.35
CCc1nc(C(=O)NC(c2ccccc2)C(C)C(=O)OC)c[nH]1 (centres undefined),-4,0.52
COc1cc(-n2cnnn2)c(Cl)cc1C(=O)N(C)CC(=O)Nc1ccc(F)cc1,4,-0.83
Cc1c(Cl)cc(C(=O)N2Cc3nc[nH]c3C[C@H]2C(=O)O)cc1Cl,-18,2.65
C[C@@H]1CN(C[C@@H]2CN(C(=O)c3cc(C4CC4)no3)C[C@@H]2CO)C[C@H](C)O1,-5,0.72
CCC1CC(C)CN1C(=O)CC1(CS(C)(=O)=O)CC1 (centres undefined),-9,0.93
Cc1nc(O)cc(CCn2cc(-c3cncnc3)nn2)n1,-10,1.96
COc1ccccc1-n1cc(C(=O)NCC(=O)N2CCN(c3cccc(Cl)c3)CC2)c2ccccc2c1=O,0,-0.03
O=C(Nc1ccn(C2CCCCC2)n1)N1CCC[C@@](O)(CO)C1,-11,1.92
COc1cc2c(cc1OC)CN(C(=O)c1c(C)cnn1-c1ccccc1)CC2,-10,1.38
N#Cc1cccnc1N[C@H]1CCN(Cc2ccccc2)C1,-12,1.07
CN(C)c1nc(N2CCC(C(=O)N3CCCC3)CC2)cc(C(F)(F)F)n1,6,-1
COC(=O)c1ccc(C)c(NC(=O)c2cn(C)cn2)c1O,-2,0.17
CCN(C(=O)Nc1ccc(-c2ccco2)cc1)C1CCOCC1,-2,0.23
Cc1ccc(-n2nc3c(N4CCC(C(=O)N[C@H]5CCCc6ccccc65)CC4)nnc(C)c3c2C)cc1,13,-1.51

SMILES,% Inhibition [%],Z score
Cc1ncoc1C(=O)N1CCCCC[C@@H]1CC(=O)c1ccccc1,-7,0.96
CC(=O)Nc1ccc(CNC[C@H]2Cn3cc(-c4ccccc4)nc3CO2)cc1,-10,1.57
CC1CN(C2CCN(C3CC4CCC3C4)CC2)CC(C)O1 (centres undefined),7,-0.98
O=C(NCC(F)(F)F)N1CCCC[C@H]1c1nc(-c2ccccc2)c[nH]1,-6,0.65
O=C1NCCCCCN(C(=O)c2nccc3ccccc23)[C@H]2CCC[C@@H]12,-3,0.43
Cc1ccc(F)c(Cc2noc([C@@H]3CCCN(C)C3=O)n2)c1,-18,2.81
CS(=O)(=O)N1CC(CS(=O)(=O)N[C@H]2CCCC(F)(F)C2)C1,-9,1.49
Cc1ccc(C2CC(C)CCN2C(=O)CC(O)C(C)C)o1 (centres undefined),-8,0.84
Cc1ccncc1C(=O)N1CC[C@H](CCOc2ccccc2)C1,-15,2.85
CCCN(C(=O)c1c[nH]c(C)cc1=O)C1CC(OCC)C12CCCC2 (centres undefined),-2,0.17
CC(C)(C)OC(=O)NCCOCCNC1CCCC1c1ccccc1 (centres undefined),-3,0.24
CN(C)S(=O)(=O)c1ccc(C(=O)NC[C@H]2CCCN2c2nccs2)cc1,-14,2.69
C#CCN1CCC(C(=O)N(C)c2cc(-c3ccccc3)[nH]n2)CC1,-3,0.44
Cc1cc(C)cc(C(=O)N2CC(n3cnc4c(N)nc(N)nc43)C2)c1,-3,0.39
COCCn1ccc2ccn(Cc3ccccc3F)c(=O)c21,-6,0.95
CN(CC(C)(CO)CO)C(=O)c1ccc2ccc(Cl)cc2n1,-6,0.57
Cc1cc(CN(C)C(=O)c2occc2C)no1,-13,1.4
O=C(O)c1cc(-c2ccccc2)nc(Nc2nc3ccccc3s2)n1,-43,5.02
CCOC(=O)c1cc(-c2cccc(NC(=O)c3ccc4ccccc4n3)c2)n(-c2ccccc2C)n1,-13,1.96
CCOCCN(C)Cc1snnc1C,-9,1.07
CC1CCCN(S(=O)(=O)NCC2CN(C(=O)c3ccccc3)C3CCN2C3)C1 (centres undefined),-15,1.73
